The values below come from US20090054323A1 (published 2009).

T1: human Ang-2 (human, UniProt O15123 19-496, limits assumed)
T1 construct: Sources differ by assay: R&D Systems 623-AN (mixture of 2 truncated versions) for initial screening; also called hAng-2; huAng-2
T1 sequence (looked up): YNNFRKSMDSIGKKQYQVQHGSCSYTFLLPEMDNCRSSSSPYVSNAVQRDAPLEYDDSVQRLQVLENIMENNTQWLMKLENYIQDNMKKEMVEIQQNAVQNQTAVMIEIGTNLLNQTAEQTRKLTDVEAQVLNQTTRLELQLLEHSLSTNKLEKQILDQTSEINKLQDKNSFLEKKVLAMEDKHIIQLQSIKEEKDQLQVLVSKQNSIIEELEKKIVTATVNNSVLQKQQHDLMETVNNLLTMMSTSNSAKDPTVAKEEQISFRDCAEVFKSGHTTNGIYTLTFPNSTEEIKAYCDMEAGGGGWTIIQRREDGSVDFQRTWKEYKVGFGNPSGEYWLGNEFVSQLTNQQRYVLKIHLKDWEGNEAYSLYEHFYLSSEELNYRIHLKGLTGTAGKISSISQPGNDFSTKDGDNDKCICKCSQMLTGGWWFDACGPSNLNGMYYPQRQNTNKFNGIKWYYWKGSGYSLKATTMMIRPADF

T2: murine Ang-2 (murine, UniProt O35608 19-496, limits assumed)
T2 construct: also called mAng-2; mouse Ang-2
T2 sequence (looked up): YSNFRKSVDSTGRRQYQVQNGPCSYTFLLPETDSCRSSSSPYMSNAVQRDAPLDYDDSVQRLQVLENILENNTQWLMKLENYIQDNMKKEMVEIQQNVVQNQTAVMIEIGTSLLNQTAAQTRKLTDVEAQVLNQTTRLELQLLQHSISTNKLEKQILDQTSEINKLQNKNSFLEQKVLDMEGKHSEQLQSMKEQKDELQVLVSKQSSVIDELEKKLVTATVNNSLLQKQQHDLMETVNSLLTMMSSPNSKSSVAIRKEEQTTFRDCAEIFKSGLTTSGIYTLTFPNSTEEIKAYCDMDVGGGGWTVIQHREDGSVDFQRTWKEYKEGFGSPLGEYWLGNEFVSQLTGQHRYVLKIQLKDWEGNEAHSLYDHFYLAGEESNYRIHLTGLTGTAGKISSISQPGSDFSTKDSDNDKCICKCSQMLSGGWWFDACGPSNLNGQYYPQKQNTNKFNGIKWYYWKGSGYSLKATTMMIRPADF

T3: rat Ang-2 (rat, UniProt O35462 19-496, limits assumed)
T3 construct: also called rAng-2
T3 sequence (looked up): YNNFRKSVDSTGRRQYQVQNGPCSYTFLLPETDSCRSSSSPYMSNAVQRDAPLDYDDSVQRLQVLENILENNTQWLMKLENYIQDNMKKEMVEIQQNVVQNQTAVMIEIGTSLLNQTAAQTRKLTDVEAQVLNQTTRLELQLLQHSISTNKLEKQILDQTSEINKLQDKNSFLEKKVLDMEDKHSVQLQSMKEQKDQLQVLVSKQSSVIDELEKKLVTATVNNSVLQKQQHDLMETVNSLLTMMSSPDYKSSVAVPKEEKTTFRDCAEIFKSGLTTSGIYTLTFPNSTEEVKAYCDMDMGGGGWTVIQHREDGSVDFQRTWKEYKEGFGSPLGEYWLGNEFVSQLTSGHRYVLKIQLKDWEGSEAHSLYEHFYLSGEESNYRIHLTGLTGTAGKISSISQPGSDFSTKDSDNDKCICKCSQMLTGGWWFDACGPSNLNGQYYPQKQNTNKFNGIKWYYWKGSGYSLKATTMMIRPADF

T4: human Ang-1 (human, UniProt Q15389 16-498, limits assumed)
T4 construct: also called hAng-1
T4 sequence (looked up): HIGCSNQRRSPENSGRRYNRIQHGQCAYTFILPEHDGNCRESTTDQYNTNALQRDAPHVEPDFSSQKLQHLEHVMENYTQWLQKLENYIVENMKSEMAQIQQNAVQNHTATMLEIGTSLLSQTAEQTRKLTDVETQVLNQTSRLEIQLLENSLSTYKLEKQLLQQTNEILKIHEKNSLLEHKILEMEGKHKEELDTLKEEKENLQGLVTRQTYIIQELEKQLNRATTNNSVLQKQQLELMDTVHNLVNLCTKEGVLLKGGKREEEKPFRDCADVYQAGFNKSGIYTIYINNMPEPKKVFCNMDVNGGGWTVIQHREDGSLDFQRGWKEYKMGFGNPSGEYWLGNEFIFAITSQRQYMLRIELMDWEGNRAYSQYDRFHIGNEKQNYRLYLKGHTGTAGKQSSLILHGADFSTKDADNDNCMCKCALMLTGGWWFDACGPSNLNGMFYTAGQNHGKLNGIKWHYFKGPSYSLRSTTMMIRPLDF

T5: cyno Ang-2 (cyno, UniProt A0A2K5VNX6 19-496)
T5 construct: also called cAng-2
T5 sequence: T1 sequence (looked up) with E258G, I279V, F284L, I291V, G410A, A468G, D477G

B1: L1 (N) (Fc fusion)
chain: MGAQKFNPLDELEETLYEQFTFQQLEGGGGG[human IgG1 Fc not written out]
notes: also called Pb L1 (N)
B2: TN-12-9 (N) (Fc fusion)
chain: MGAQFDYCEGVEDPFTFGCDNHLEGGGGG[human IgG1 Fc not written out]
B3: Con4-40 (C) (Fc fusion)
chain: [human IgG1 Fc not written out]GGGGGAQTNIQEECEWDPWTCDHMPGKLE
B4: Con4-44 (C) (Fc fusion)
chain: [human IgG1 Fc not written out]GGGGGAQPIRQEECDWDPWTCEHMWEVLE
B5: L1-7 (N) (Fc fusion)
chain: MGAQTNFMPMDDLEQRLYEQFILQQGLEGGGGG[human IgG1 Fc not written out]
B6: L1-10 (N) (Fc fusion)
chain: B5 chain with T5Q, N6K, M8Q, M10L, D12E, R16T, I22M, G26A
B7: L1-21 (N) (Fc fusion)
chain: MGAQHTFQPLDELEETLYYQWLYDQLLEGGGGG[human IgG1 Fc not written out]

Where a chain is given by its changes, count along the chain named.

For the first test, the target named is T1, human Ang-2. Briefly: neutralization ELISA vs Tie-2-Fc. As to the method: (§1) Microtiter plates to which human Ang-2 polypeptide was bound were prepared as described for the Affinity ELISA. […] Next, about 100 microliters per well of goat anti-mouse-IgG-HRP (Pierce Chemical CO., catalog #31432) was added at a dilution of 1:10,000 in PBS containing about 1 percent BSA. Plates were incubated at room temperature for about 1 hour, after which they were washed five times with PBS containing about 0.1 percent Tween-20. About 100 microliters per well of TMB substrate (described above) was then added and color was allowed to develop. Absorbance was then read in a spectrophotomer at 370 nm.
The term IC50 denotes the concentration that inhibits the measured activity by half. A low value points to greater potency in that assay. The molecule B1 gave an IC50 of 6 nM.

B2: half-maximal inhibition (IC50) was put at 21 nM.

For a further test, the target named is T2, murine Ang-2. Briefly: neutralization ELISA vs Tie-2-Fc. As to the method:
as §1
(In general: ELISA stands for enzyme-linked immunosorbent assay.)
For the molecule B1, the IC50 came out at 11 nM.

In turn, B2 registered an IC50 of 7.7 nM. The IC50 values of the last two molecules are within 1.5-fold of each other.

The next test addresses T1, human Ang-2. Briefly: neutralization ELISA vs Tie-2-Fc. This is another data set of the same source.
Molecule B3 returned an IC50 of 0.1 nM.

Consider B4, for which 0.09 nM corresponded to half-maximal inhibition (IC50).

Molecule B5 displayed an IC50 of 0.03 nM.

With B6, it took 0.05 nM to reach half-maximal inhibition (IC50). This IC50 lies about 1.7-fold higher than the previous one.

B7 came in with an IC50 of 0.17 nM.

A further test concerns the target T1, human Ang-2. Briefly: neutralization ELISA vs Tie-2-Fc. The source holds these as a separate data set. As to the method:
(§2) Plates were incubated at room temperature for about 1 hour, after which they were washed five times with PBS containing about 0.1 percent Tween-20. […] Absorbance was then read in a spectrophotomer at 370 nm.
Regarding B3, the IC50 came out at 0.2 nM.

As for B4, the IC50 is 0.08 nM.

B5 came in with an IC50 of 0.046 nM. This IC50 is about 1.7-fold lower than that of the molecule before.

As to B6, the IC50 worked out at 0.06 nM.

B7 registered an IC50 of 0.179 nM.

A further test concerns the target T3, rat Ang-2. Briefly: neutralization ELISA vs Tie-2-Fc. As to the method: as §2
B3 returned an IC50 of 0.35 nM.

B4 returned an IC50 of 0.22 nM. This IC50 lies about 1.6-fold lower than the previous one.

With B5, the IC50 was found to be 0.035 nM.

For the molecule B6, the IC50 came out at 0.06 nM.

On to B7, for which the IC50 came out at 0.204 nM.

A further test concerns the target T4, human Ang-1. Briefly: neutralization ELISA vs Tie-2-Fc. As to the method: as §2
B4 yielded an IC50 of 43 nM. That is a double-digit nanomolar value.

Another test deals with T5, cyno Ang-2. Briefly: neutralization ELISA vs Tie-2-Fc. As to the method: as §2
The molecule B5 came in with an IC50 of 0.108 nM.

As to B7, half-maximal inhibition (IC50) was put at 0.608 nM.

A further test addresses T2, murine Ang-2. Briefly: neutralization ELISA vs Tie-2-Fc. This is another data set of the same source. As to the method: as §2
Consider B3, for which 0.27 nM corresponded to half-maximal inhibition (IC50).

With B4, the IC50 was determined as 0.16 nM. This IC50 lies about 1.7-fold lower than the previous one.

As to B5, the IC50 was 0.063 nM.

For the molecule B6, half-maximal inhibition (IC50) was put at 0.06 nM.

B7 came in with an IC50 of 0.249 nM.

The target of the next test is T1, human Ang-2. Briefly: BIAcore, peptibody captured on Protein G. On the technique in general: In SPR one partner is held on a chip, and binding of the other changes the refractive index at the surface.
A word on the Kd: it is the concentration at which binding is half-saturated. Low values mean tighter binding, high ones weaker binding. What is called koff is the rate constant with which the complex falls apart. Read a low koff as a long-lived complex. For orientation: kon means the second-order rate constant of association. High values mean faster complex formation, low ones slower complex formation. In the case of B1, the affinity, expressed as Kd, was 3.1 nM; the koff worked out at 0.00091 s⁻¹; the kon is 290000 M⁻¹ s⁻¹.

B2: the Kd was found to be 8.2 nM, the koff is 0.001 s⁻¹ and the on-rate (kon) came to 120000 M⁻¹ s⁻¹.

Another test addresses T2, murine Ang-2. Briefly: BIAcore, peptibody captured on Protein G.
B1: the Kd worked out at 0.42 nM, the off-rate constant (koff) came to 0.00023 s⁻¹ and the kon came to 560000 M⁻¹ s⁻¹.

As for B2, binding was characterised by a dissociation constant (Kd) of 0.32 nM, the koff was 0.00023 s⁻¹ and the kon was found to be 720000 M⁻¹ s⁻¹.

A further test addresses T1, human Ang-2. Briefly: BIAcore, peptibody captured on Protein G. The source holds these as a separate data set.
In the case of B4, the Kd is 0.21 nM, the koff turned out to be 5.9e-05 s⁻¹ and the kon worked out at 290000 M⁻¹ s⁻¹.

Regarding B5, the Kd came to 0.24 nM, the koff was 8.7e-05 s⁻¹ and the kon came out at 370000 M⁻¹ s⁻¹.

Turning to B6, the Kd is 0.77 nM, the koff amounted to 0.00011 s⁻¹ and the kon worked out at 150000 M⁻¹ s⁻¹.

For the molecule B7, the Kd was 0.24 nM, the koff came out at 0.00014 s⁻¹ and the on-rate (kon) stood at 560000 M⁻¹ s⁻¹.
